In all, about 340,000 compounds went through this assay and about 12,000 (3.5%) were called active. Inconclusive means that the source gave no clear call. Such entries were picked first, then a sample of the others. Calls come from the whole dose curve; as a rule, active = well fitted inhibition curve with a large enough effect; inconclusive = small, poorly fitted or top-dose-only effect, or another doubt; inactive = no such curve, though single readings can be large or run the other way. No potency is given beside an inconclusive call; the fits are too rough.
Experiment: qHTS Assay for Inhibitors of Hepatitis C Virus (HCV)
Details: Huh7.5.1 HCVcc-Cre (HCVcc is cell-culture hepatitis C virus) infection, luciferase reporter, 44 h; activity change, negative = inhibition: at 41.8 µM (top of the series) unless noted
Outline: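 Seed cells (1,000/well) for 4 h; treat with compound and infect with HCVcc-Cre, moi about 0.5. Incubate 44 h, then detect luciferase activity.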
With `CC(C)(C)OC(=O)NC(Cc1ccccc1)C(=O)N1CCC(C(=O)NCC(=O)Nc2ccc(F)cc2)CC1` (centres undefined) the Potency was “inactive”. In the case of `CCNC(=O)NC(=O)C(C)OC(=O)C(C)(C)Oc1ccc(Cl)cc1` (centres undefined), the Potency is reported as “inactive”. For `CCOC(=O)c1ccc(NC=C2C(=O)OC3(CCCCC3)OC2=O)cc1`, the Potency was “inactive”. With `O=C(NC1CCCC1)c1cc(COc2ccc3ncccc3c2)on1` the Potency was active: 3.55 µM. In the case of `COc1cc(C(C)=O)ccc1Oc1ccc(S(=O)(=O)N2CCOCC2)cn1`, the Potency is reported as inconclusive [inhibitor, full curve]. In the case of `C[C@@H]1CC[C@]2(C(=O)O)CC[C@]3(C)C(=CCC4[C@]56CC[C@@](O)(OC5)C(C)(C)C6CC[C@]43C)C2[C@H]1C` (some centres undefined), the Potency is reported as active: 2 µM. With `CCOC(=O)c1ccc(NC(=S)N2CCSC2c2ccc(Cl)cc2)cc1` (centres undefined) the Potency was inconclusive [inhibitor, single point]. For `Oc1cccc(Nc2ncnc3c2oc2ccccc23)c1`, the Potency was inconclusive [inhibitor, single point]. For `C/C(=N\NC(=O)CNC(=O)c1cccc(F)c1)c1ccc2ccccc2c1`, the Potency was inconclusive [inhibitor, partial curve]. With `COC(=O)[C@@H]1[C@@H](C#N)C2(c3ccccc3-c3ccccc32)N(c2ccc(Cl)cc2)N1C#N` the Potency was inconclusive [inhibitor, single point]. For `COc1ccc(C(C)=O)cc1COC(=O)c1cnc(C)cn1`, the Potency was inconclusive [inhibitor, single point]. For `COc1ccc(N/N=C(/Oc2ccc([N+](=O)[O-])cc2)C(C)=O)cc1`, the Potency was “inactive”. In the case of `COc1ccc(NC(=O)CSc2ccccn2)cc1`, the Potency is reported as “inactive”. With `COc1ccc(OCCN2C(=O)c3cccc(N)c3C2=O)cc1` the Potency was “inactive”. In the case of `CCN(CC)c1ccc2c(Nc3ccccc3)c(C=O)c(=O)oc2c1`, the Potency is reported as inconclusive [inhibitor, single point]. For `Cc1nn(-c2ccc(N3CCCCC3)nn2)c(C)c1CCC(=O)Nc1ccc(F)c(F)c1`, the Potency was inconclusive [inhibitor, partial curve]. For `CCC(C)c1ccc(C2C3=C(Nc4nc(N)[nH]c(=O)c42)c2ccccc2C3=O)cc1` (centres undefined), the Potency was active: 7.94 µM. For `COc1ccc(NCC(=O)N/N=C/c2cc([N+](=O)[O-])ccc2N2CCCC2)cc1`, the Potency was inconclusive [inhibitor, partial curve]. In the case of `Cc1cc(OCCCCOc2ccc(S(N)(=O)=O)c(C)c2)ccc1S(N)(=O)=O`, the Potency is reported as inconclusive [inhibitor, partial curve]. With `CCCCN(C(=O)c1ccccc1OCc1ccc(F)cc1)c1c(N)n(CC(C)C)c(=O)[nH]c1=O` the Potency was inconclusive [inhibitor, single point]. In the case of `Cc1ccc(NC(=O)CCC(=O)c2cccs2)c(O)c1`, the Potency is reported as “inactive”. For `CN(C)CCC1c2ccc(Cl)cc2CCc2cccnc21` (centres undefined) (tested in a mixture with another compound), the Potency was inconclusive [inhibitor, single point]. With `O=C(NCC1CC1)c1ccc(Nc2nc3ccc(Br)cc3[nH]2)cc1` the Potency was inconclusive [inhibitor, single point]. With `Cc1ccccc1C(=O)Nc1cccc(-c2cn3ccccc3n2)c1` the Potency was active: 14.1 µM. With `c1cncc(-c2nc(N3CCCCCC3)c3ccccc3n2)c1` the Potency was inconclusive [inhibitor, single point]. In the case of `Cc1ccc(NC(=O)C2CC(=O)N(CCc3ccccc3)C2)c(C)c1` (centres undefined), the Potency is reported as “inactive”. With `CC(NC(=O)c1cccc(S(=O)(=O)N2CCCCCC2)c1)c1ccccc1` (centres undefined) the Potency was inconclusive [inhibitor, partial curve]. For `COc1ccc(C(=O)NC(=S)Nc2ccc(N3CCOCC3)c(Cl)c2)cc1[N+](=O)[O-]`, the Potency was inconclusive [inhibitor, single point]. With `Cc1cccc(NC(=O)c2cnc3n(c2=O)CCS3)c1` the Potency was “inactive”. In the case of `CN(C)/C=C1/Nc2ccccc2C1=O`, the Potency is reported as inconclusive [inhibitor, single point]. With `O=C1NC(=O)N(c2ccc3c(c2)OCO3)C(=O)/C1=C\c1ccsc1` the Potency was “inactive”. With `O=C(NNC(=S)NCC1CCCO1)c1ccc(S(=O)(=O)N2CCOCC2)cc1` (centres undefined) the Potency was inconclusive [inhibitor, full curve, poor fit]. With `COc1ccc(/C=N/NC(=O)c2cc3c(OC)ccc(OC)c3[nH]2)cc1O` the Potency was inconclusive [inhibitor, partial curve]. For `CN1CCN(S(=O)(=O)c2ccc(Nc3ccc(F)cc3)nc2)CC1`, the Potency was inconclusive [inhibitor, partial curve]. In the case of `O=C(NCCCn1ccnc1)C(=O)NCC(c1ccco1)N1CCN(c2ccc(F)cc2)CC1` (centres undefined), the Potency is reported as inconclusive [inhibitor, single point]. For `O=C(Nc1ccccc1N1CCOCC1)C1CCCO1` (centres undefined), the Potency was “inactive”. For `CSc1ccc(C2C(C#N)=C(N)Oc3c2ccc(=O)c2c(C)oc(C)c32)cc1` (centres undefined), the Potency was inconclusive [inhibitor, full curve]. In the case of `COc1ccc(S(=O)(=O)Nc2cc(C)c(O)cc2C(C)C)cc1`, the Potency is reported as inconclusive [inhibitor, single point]. For `COc1ccc2nc(SCCOC(=O)Nc3ccc(Cl)cc3)nc(C)c2c1`, the Potency was inconclusive [inhibitor, single point]. In the case of `Cc1ccc(-c2ccc(C(=O)NCc3ccc(Cl)cc3)o2)c2ccccc12`, the activity change, negative = inhibition is reported as inactive: -5.14% [at 8.37 µM]. For `CCOC(=O)N1CCN(Cc2nc(N)nc(Nc3ccc(Oc4ccccc4)cc3)n2)CC1`, the Potency was inconclusive [inhibitor, single point]. With `CCOC(=O)Nc1ccc2c(COC(=O)C(NS(=O)(=O)c3ccc(Cl)cc3)C(C)O)cc(=O)oc2c1` (centres undefined) the Potency was inconclusive [inhibitor, partial curve]. With `Cc1cc(C)nc(SCc2nnc(SCC(=O)N3CCOCC3)o2)n1` the Potency was “inactive”. In the case of `Cc1ccc(C)c(CN2C(=O)c3ccccc3S(=O)c3ccc(C(=O)NCCCN4CCCC4)cc32)c1` (centres undefined), the Potency is reported as active: 7.08 µM.

Reference: PubChem BioAssay AID651820 (National Center for Advancing Translational Sciences (NCATS), 2012)
% is set by controls: 0 for no effect and ±100 for the full control effect; potency is the fitted concentration of half-maximal effect; tags give direction and shape of the fitted curve.
